Laboratory results reported in article PMC4336329 (PLoS ONE, 2015).
Among all 310,000 compounds or so, about 2,200 (0.71%) showed an effect of 50% or more. Effects have a minus sign here. This is one part of the list.

Biological target: human ether-à-go-go-related gene (hERG) potassium channel (human, UniProt Q12809)
Assay: primary screen, population patch clamp on CHO cells stably expressing hERG

Sequence of human ether-à-go-go-related gene (hERG) potassium channel (Q12809 whole entry, looked up): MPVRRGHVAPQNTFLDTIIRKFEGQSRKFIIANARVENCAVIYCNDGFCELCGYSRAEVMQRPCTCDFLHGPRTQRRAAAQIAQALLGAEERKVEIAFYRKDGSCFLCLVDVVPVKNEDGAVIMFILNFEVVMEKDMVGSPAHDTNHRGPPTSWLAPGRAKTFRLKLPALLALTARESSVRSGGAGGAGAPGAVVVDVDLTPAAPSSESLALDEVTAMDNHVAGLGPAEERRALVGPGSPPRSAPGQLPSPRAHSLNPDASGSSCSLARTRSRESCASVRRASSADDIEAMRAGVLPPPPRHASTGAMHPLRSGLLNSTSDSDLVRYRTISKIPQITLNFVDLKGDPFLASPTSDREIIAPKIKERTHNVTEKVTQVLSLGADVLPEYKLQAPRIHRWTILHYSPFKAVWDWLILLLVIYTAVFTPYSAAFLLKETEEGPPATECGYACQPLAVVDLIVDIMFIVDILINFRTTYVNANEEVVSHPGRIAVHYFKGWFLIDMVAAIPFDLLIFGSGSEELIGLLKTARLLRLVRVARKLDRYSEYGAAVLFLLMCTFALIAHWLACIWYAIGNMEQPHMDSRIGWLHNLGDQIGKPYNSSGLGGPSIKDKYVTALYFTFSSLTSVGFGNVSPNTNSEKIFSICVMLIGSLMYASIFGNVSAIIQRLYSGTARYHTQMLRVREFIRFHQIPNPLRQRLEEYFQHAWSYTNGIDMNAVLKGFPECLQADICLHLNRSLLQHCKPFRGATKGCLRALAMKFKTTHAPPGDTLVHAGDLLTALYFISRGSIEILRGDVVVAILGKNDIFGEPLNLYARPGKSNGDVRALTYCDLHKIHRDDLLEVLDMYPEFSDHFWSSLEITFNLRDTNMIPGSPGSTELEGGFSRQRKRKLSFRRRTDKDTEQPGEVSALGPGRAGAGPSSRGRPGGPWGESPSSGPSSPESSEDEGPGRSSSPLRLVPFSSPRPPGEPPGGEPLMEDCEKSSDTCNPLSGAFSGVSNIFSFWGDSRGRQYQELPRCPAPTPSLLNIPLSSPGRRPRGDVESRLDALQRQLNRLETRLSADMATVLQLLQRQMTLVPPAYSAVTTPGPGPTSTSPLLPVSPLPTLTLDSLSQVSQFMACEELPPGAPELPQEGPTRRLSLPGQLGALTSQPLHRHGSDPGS

SMILES | hERG current change (%, negative = inhibition) at 1uM [%]
CC(Nc1nc(-c2ccc(F)cc2)cs1)c1nc2cc(C(F)(F)F)ccc2n1CCOCCO (stereo not shown) | 4.96
O=C(NC(Cc1ccccc1)C(=O)O)/C(=C/c1ccc([N+](=O)[O-])cc1)NC(=O)c1ccco1 (stereo not shown) | 10.8
O=C(NCc1ccc(Cl)cc1)NCC(F)(F)F | 10.9
Cc1ccccc1NC(=S)NC(NC(=O)c1ccco1)C(Cl)(Cl)Cl (stereo not shown) | -0.827
Oc1ccccc1-c1nc(NCc2cccnc2)c2ccccc2n1 | 14.8
COC(=O)Cc1c(O)ccn(Cc2cccc(C(F)(F)F)c2)c1=O | 9.56
CC(C)(CNc1ccc(C(F)(F)F)cc1[N+](=O)[O-])N1CCOCC1 | 13.4
C=CCn1c(O)c(C(CC)=NCc2ccco2)c(=O)[nH]c1=O | 2.16
c1ccc(CC2CCCCN2)cc1 (stereo not shown) | 9.57
Brc1ccc(-c2csc(N3CCCCCC3)n2)cc1 | 11.5
O=C(CN1C(=O)S/C(=C\c2ccccc2)C1=O)NC1CCS(=O)(=O)C1 (stereo not shown) | 10.1
COc1ccc(OC)c(C(=O)c2ccc(C(=O)Nc3ccc4ccccc4c3)cc2)c1 | 11.5
Cc1ccc(NC(=O)CSc2nnc(C3CC3)n2C)cc1S(=O)(=O)N1CCCCC1 | 8.55
COCc1nnc(NC(=O)c2cc(OC)c(OC)cc2[N+](=O)[O-])s1 | 2.64
Cc1ncc(N=Nc2ccccc2Cl)c(-c2ccccc2)n1 | 4.61
CC(C)(C)NC(=O)CN(Cc1cccs1)C(=O)CN1C(=O)C(=O)c2ccccc21 | 6.95
COc1ccc(C(=O)OCC(=O)Nc2ccc(F)c(F)c2F)cc1OC | -19.3
Cn1cc(/C=C2\SC(=S)N(N3CCOCC3)C2=O)c2ccccc21 | 13.8
CCCN(CC(=O)Nc1cc(Cl)ccc1Cl)C(=O)/C=C/c1ccco1 | 1.79
Cc1cccc(C(=O)N2CCN(S(=O)(=O)N3CCCCCC3)CC2)c1 | 8.87
COc1ccc(OCC(O)CNc2ccc(Br)cc2)cc1 (stereo not shown) | 13.3
CCOc1cc(N2CCOCC2)c(OCC)cc1NC(=O)CCC1CCCC1 | 8.21
COc1ccc(OC)c(C2C(C(=O)Nc3nc4ccccc4s3)=C(C)NC3=C2C(=O)CCC3)c1 (stereo not shown) | 13.3
S=C(NCCc1ccccc1)NCC1CCCO1 (stereo not shown) | 5.58
Cc1ccc(NC(=O)CSc2nnc(CCNC(=O)OC(C)(C)C)o2)c(C)c1 | -6.04
